# Source: patent publication US20150160214A1 (MAYO FOUNDATION FOR MEDICAL EDUCATION AND RESEARCH, published 2015)
# Biological target: T1, platelet glycoprotein Ib alpha (GPIbα) on platelets of healthy donors (human, UniProt P07359 17-652)
# T1 construct: whole, on cells; The assays use whole platelets; On platelets GPIbα is part of the GPIb-IX-V complex; also called GP1bα; GPIba
# Assay: Cu2+ chelate Vena8 biochip flow chamber, platelet pause time at 1500 s^-1
row,Binder,binding result
1,"vWF A1 domain variant […] ([…]) (ligand, Type 2M vWD variant; molten globule; also called E1359K (2M); not shown: 6xHis-Tag (pQE-9 vector)) not shown",no binding
2,"vWF A1 domain variant […] ([…]) (ligand, Type 2M vWD variant; molten globule; also called I1425F (2M); not shown: 6xHis-Tag (pQE-9 vector)) not shown",no binding

# Second part, the binder after the results:
row,binding result,Binder
1,no binding,"vWF A1 domain variant […] ([…]) (ligand, Type 2M vWD variant; molten globule; also called S1285F (2M); 51285F; not shown: 6xHis-Tag (pQE-9 vector)) not shown"
2,no binding,"vWF A1 domain variant […] ([…]) (ligand, Type 2M vWD variant; molten globule; also called F1369I (2M); not shown: 6xHis-Tag (pQE-9 vector)) not shown"

# Biological target: T1, platelet glycoprotein Ib alpha (GPIbα) …
# Assay: flow chamber, platelet pause time at 1500 s^-1 on surface-captured A1 domain
row,binding result,Binder
1,no binding,"vWF A1 domain variant […] ([…]) (ligand, Type 2M vWD variant; molten globule; also called R1374H (2M); not shown: 6xHis-Tag (pQE-9 vector)) not shown"
2,no binding,"vWF A1 domain variant […] ([…]) (ligand, Type 2M vWD variant; natively structured; also called G1324S (2M); not shown: 6xHis-Tag (pQE-9 vector)) not shown"

# Biological target: T1, platelet glycoprotein Ib alpha (GPIbα) …
# Assay: mean platelet pause time on His-captured A1 variant, parallel plate flow chamber, 1500 s^-1
# Procedure: (§1) Determination of platelet pause times. […] The shear was increased incrementally and 1 min movies were recorded at 25 frames/s in phase contrast with 232 pixel binning on a Zeiss Axiocam MRm camera attached to a Zeiss Axio Observer D1 inverted microscope. Tracking analysis was performed using Mediacybernetics ImagePro Premier§. The resulting X-Y coordinate data for each platelet track was differentiated into instantaneous velocities using a Savitzky-Golay algorithm (Savitzky:1964) with a five data point window size and a second-order polynomial implemented into a Mathamatica notebook. These platelet tracks were retained for statistical analysis if the platelet was present for at least 1 s and travelled a total distance greater than 1 lm. Distance travelled in pixels was converted to lm given the camera pixel size=6.45 μm², pixel binning, and microscope magnification=400×. Pause times were determined by the amount of time (seconds) a platelets velocity was =0±0.13 μm/s, within the noise. Pause times for all platelet tracks are reported as the mean of the medians. Examples of this analysis for individual platelets and for multiple platelets are provided in the Supporting Information.
row,Binder,Pause Time 1500 s^-1
1,"vWF A1 domain variant […] ([…]) (ligand, Type 2B vWD variant; natively structured; also called R1308L (2B); H1308L (2B)) not shown",0.29 s
2,"vWF A1 domain variant […] ([…]) (ligand, Type 2B vWD variant; natively structured; also called I1309V (2B); not shown: 6xHis-Tag (pQE-9 vector)) not shown",2.14 s
3,"vWF A1 domain variant […] ([…]) (ligand, Type 2B vWD variant; molten globule; also called V1314D (2B); not shown: 6xHis-Tag (pQE-9 vector)) not shown",3.53 s
4,"vWF A1 domain variant […] ([…]) (ligand, Type 2B vWD variant; molten globule; also called H1268D (2B); not shown: 6xHis-Tag (pQE-9 vector)) not shown",1.26 s
5,"vWF A1 domain variant […] ([…]) (ligand, Type 2B vWD variant; native-like; also called R1341Q (2B); not shown: 6xHis-Tag (pQE-9 vector)) not shown",0.94 s

# More lines, now with the values ahead:
row,Pause Time 1500 s^-1,Binder
1,2.94 s,"vWF A1 domain variant […] ([…]) (ligand, Type 2B vWD variant; molten globule; also called V1316M (2B); not shown: 6xHis-Tag (pQE-9 vector)) not shown"
2,1.03 s,"vWF A1 domain variant […] ([…]) (ligand, Type 2B vWD variant; natively structured; also called I1372S (2B); not shown: 6xHis-Tag (pQE-9 vector)) not shown"
3,0.28 s,"vWF A1 domain variant […] ([…]) (ligand, Type 2M vWD variant; native-like; also called A1437T (2M); not shown: 6xHis-Tag (pQE-9 vector)) not shown"
4,1.56 s,"vWF A1 domain variant […] ([…]) (ligand, Type 2B vWD variant; molten globule; also called P1337L (2B); not shown: 6xHis-Tag (pQE-9 vector)) not shown"
5,0.95 s,"vWF A1 domain variant […] ([…]) (ligand, Type 2B vWD variant; natively structured; also called R1306Q (2B); not shown: 6xHis-Tag (pQE-9 vector)) not shown"

# Biological target: T1, platelet glycoprotein Ib alpha (GPIbα) …
# Assay: Cu2+ chelate Vena8 biochip flow chamber, distance travelled by one platelet at 1025 s^-1
# Procedure: A 5 μM concentration of protein was immobilized in the biochip and citrated whole blood was perfused at a shear rate of 800 s−1 (FIG. 11B). This perfusion was followed by TBS buffer and after red blood cells cleared the channel, the shear was decremented to 100 s−1 or incremented to 9000 s−1 every two minutes at logarithmic intervals. Surface bound platelets were allowed to equilibrate at a given shear rate for 50 s and a 60 s video at 24 frames per second was recorded and analyzed as described in the methods. The internal channel surface lacking immobilized A1 domain was completely inert to platelets.
# The determination and analysis of platelet pause times and instantaneous translocation velocities over surface captured A1 and RCAM A1 was performed as previously described (Tischer:2013). Here, the inventor used the Cellix Mims Evo syringe pump controlled by VenaFluxAssay (www.cellixltd.com). […] After allowing the flow chamber to equilibrate for 50 s at each shear rate, 1 min movies were recorded at 24 frames per second in phase contrast at 200× magnification with 2×2 pixel binning on a Zeiss AxioCam Mrm camera (6.45 μm/px) attached to a Zeiss Axio Observer.D1 inverted microscope. […]
row,binding result,Binder
1,binds,"reduced and carboxyamidated (RCAM) A1 domain (vWF […]) (ligand, the cysteines of the […] disulfide bond reduced (DTT) and carboxyamidated (iodoacetamide), Molten globule model of the intermediate state; not shown: N-terminal 6xHis-Tag) not shown"

# Biological target: T1, platelet glycoprotein Ib alpha (GPIbα) …
# Assay: parallel-plate flow chamber, His-tagged A1 captured on a Cu2+ chelate slide, platelets from citrated whole blood, video tracking
# Procedure: as §1, with “noise.” for “noise. Pause times for all platelet tracks are reported as the mean of the medians. Examples of this analysis for individual platelets and for multiple platelets are provided in the Supporting Information.”
row,binding result,Binder
1,binds,"Recombinant human vWF A1-1261 ([…]), N-terminal truncated variant (ligand, Lacks the linker […]; also called truncated A1) not shown"
